Results taken from the supplement of paper PMC10037445.
In all, about 2,900 compounds were measured (“NF-kB SEAP reporter activity, fold change vs agonist alone”: median about 0.99, highest 2% from about 2.6 on). Some of the results follow.

Key:
[1] = test system: RAW-Dual; experiment: NF-kB SEAP reporter activity, fold change vs agonist alone; higher = enhanced NF-kB activity
In short: (§1)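 RAW-Dual macrophages were seeded in DMEM at 50,000 cells/well in 384-well plates, given 50 nL of library stock by pin tool, and given a PRR agonist 1 h later. Plates were held at 37 °C, 5% CO2 for 20 hours, after which supernatant was read for IRF by QuantiLuc luminescence and for NF-κB by QuantiBlue absorbance at 620 nm. Reporter activity is expressed as fold change over wells that received agonist alone. A well was called cytotoxic when IncuCyte confluency fell below 70% of agonist controls in both mask sets.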

[2] = test system: RAW-Dual; experiment: NF-kB SEAP reporter activity, fold change vs agonist alone; cytotoxicity flag (confluency mask): not cytotoxic; higher = enhanced NF-kB activity
In short: as §1

[3] = test system: RAW-Dual; experiment: NF-kB SEAP reporter activity, fold change vs agonist alone; cytotoxicity flag (confluency mask): cytotoxic (confluency <70% of control); higher = enhanced NF-kB activity
In short: as §1

[4] = library stock concentration (final ~1000-fold dilution): 10 mM, cytotoxicity flag (confluency mask): not cytotoxic, agonist: Imiquimod (TLR7) […]
[5] = library stock concentration (final ~1000-fold dilution): 10 mM, cytotoxicity flag (confluency mask): not cytotoxic, agonist: MPLA (TLR4) […]
[6] = agonist: ODN 1826 (TLR9) 0.5 ug/mL
[7] = agonist: Pam2CSK4 (TLR2/6) 0.1 ug/mL
[8] = agonist: Pam3CSK4 (TLR2/1) 0.1 ug/mL
[9] = library stock concentration (final ~1000-fold dilution): 10 mM, cytotoxicity flag (confluency mask): cytotoxic (confluency <70% of control), agonist: Imiquimod (TLR7) […]
[10] = library stock concentration (final ~1000-fold dilution): 10 mM, cytotoxicity flag (confluency mask): cytotoxic (confluency <70% of control), agonist: MPLA (TLR4) […]

CNC(=O)C(Cc1c[nH]c2ccccc12)NC(=O)C(CC(=O)NO)CC(C)C (centres undefined)
NF-kB SEAP reporter activity [1, 4]: 1.04
NF-kB SEAP reporter activity [1, 5]: 1.23

CNC(=O)C(Cc1c[nH]c2ccccc12)NC(=O)C(CC(=O)NO)CC(C)C (centres undefined) (library stock concentration (final ~1000-fold dilution): 10 mM)
NF-kB SEAP reporter activity ([2]; agonist: LPS (TLR4) 0.1 ug/mL): 0.932
NF-kB SEAP reporter activity [2, 6]: 0.999
NF-kB SEAP reporter activity [2, 7]: 1.03
NF-kB SEAP reporter activity [2, 8]: 1.01

COc1ccc(S(=O)(=O)N(C(C)=O)c2ccccc2/C=C/c2cc[n+]([O-])cc2)cc1
NF-kB SEAP reporter activity [1, 4]: 2.17
NF-kB SEAP reporter activity [1, 5]: 1.61

COc1ccc(S(=O)(=O)N(C(C)=O)c2ccccc2/C=C/c2cc[n+]([O-])cc2)cc1 (library stock concentration (final ~1000-fold dilution): 10 mM)
NF-kB SEAP reporter activity ([2]; agonist: LPS (TLR4) 0.1 ug/mL): 1.85
NF-kB SEAP reporter activity [2, 6]: 2.59
NF-kB SEAP reporter activity [2, 7]: 1.94
NF-kB SEAP reporter activity [2, 8]: 1.43

O=C1Nc2nc(-c3c(O)cccc3OCC3CC3)cc([C@@H]3CCCNC3)c2CO1 (library stock concentration (final ~1000-fold dilution): 10 mM)
NF-kB SEAP reporter activity ([3]; agonist: LPS (TLR4) 0.1 ug/mL): 0.3
NF-kB SEAP reporter activity [3, 6]: 0.204
NF-kB SEAP reporter activity [3, 7]: 0.0719
NF-kB SEAP reporter activity [3, 8]: 0.16

O=C1Nc2nc(-c3c(O)cccc3OCC3CC3)cc([C@@H]3CCCNC3)c2CO1
NF-kB SEAP reporter activity [1, 9]: 0.186
NF-kB SEAP reporter activity [1, 10]: 0.267

NC1C(O)OC(CO)C(O)C1O (centres undefined)
NF-kB SEAP reporter activity [1, 4]: 1.01
NF-kB SEAP reporter activity [1, 5]: 1.08

NC1C(O)OC(CO)C(O)C1O (centres undefined) (library stock concentration (final ~1000-fold dilution): 10 mM)
NF-kB SEAP reporter activity ([2]; agonist: LPS (TLR4) 0.1 ug/mL): 0.781
NF-kB SEAP reporter activity [2, 6]: 0.917
NF-kB SEAP reporter activity [2, 7]: 0.81
NF-kB SEAP reporter activity [2, 8]: 0.843

O=C(NC(CO)C(O)c1ccc([N+](=O)[O-])cc1)C(Cl)Cl (centres undefined) (library stock concentration (final ~1000-fold dilution): 10 mM)
NF-kB SEAP reporter activity ([2]; agonist: LPS (TLR4) 0.1 ug/mL): 1.26
NF-kB SEAP reporter activity [2, 6]: 1.08
NF-kB SEAP reporter activity [2, 7]: 1.07
NF-kB SEAP reporter activity [2, 8]: 1.13

O=C(NC(CO)C(O)c1ccc([N+](=O)[O-])cc1)C(Cl)Cl (centres undefined)
NF-kB SEAP reporter activity [1, 4]: 0.924
NF-kB SEAP reporter activity [1, 5]: 1.06

Nc1nc(NCCc2ccc(O)cc2)nc2nc(-c3ccco3)nn12
NF-kB SEAP reporter activity [1, 4]: 1.7
NF-kB SEAP reporter activity [1, 5]: 1.36

Nc1nc(NCCc2ccc(O)cc2)nc2nc(-c3ccco3)nn12 (library stock concentration (final ~1000-fold dilution): 10 mM)
NF-kB SEAP reporter activity ([2]; agonist: LPS (TLR4) 0.1 ug/mL): 1.81
NF-kB SEAP reporter activity [2, 6]: 1.56
NF-kB SEAP reporter activity [2, 7]: 1.16
NF-kB SEAP reporter activity [2, 8]: 1.41

O=C(/C=C/c1ccc(CN(CCO)CCc2c[nH]c3ccccc23)cc1)NO (library stock concentration (final ~1000-fold dilution): 10 mM)
NF-kB SEAP reporter activity ([3]; agonist: LPS (TLR4) 0.1 ug/mL): 5.57

O=C(/C=C/c1ccc(CN(CCO)CCc2c[nH]c3ccccc23)cc1)NO
NF-kB SEAP reporter activity [1, 9]: 2.64
NF-kB SEAP reporter activity [1, 10]: 2.71

Cc1nc(-c2cn3c(n2)-c2ccc(-c4cnn(C(C)(C)C(N)=O)c4)cc2OCC3)n(C(C)C)n1 (library stock concentration (final ~1000-fold dilution): 10 mM)
NF-kB SEAP reporter activity ([2]; agonist: LPS (TLR4) 0.1 ug/mL): 2.74
NF-kB SEAP reporter activity [2, 6]: 1.31
NF-kB SEAP reporter activity [2, 7]: 0.996
NF-kB SEAP reporter activity [2, 8]: 1.15

Cc1nc(-c2cn3c(n2)-c2ccc(-c4cnn(C(C)(C)C(N)=O)c4)cc2OCC3)n(C(C)C)n1
NF-kB SEAP reporter activity [1, 4]: 0.619
NF-kB SEAP reporter activity [1, 5]: 1.84

O=c1cc[nH]c(=S)[nH]1
NF-kB SEAP reporter activity [1, 4]: 1.07
NF-kB SEAP reporter activity [1, 5]: 0.995

O=c1cc[nH]c(=S)[nH]1 (library stock concentration (final ~1000-fold dilution): 10 mM)
NF-kB SEAP reporter activity ([2]; agonist: LPS (TLR4) 0.1 ug/mL): 1.28
NF-kB SEAP reporter activity [2, 6]: 1.03
NF-kB SEAP reporter activity [2, 7]: 1.29
NF-kB SEAP reporter activity [2, 8]: 1.11

Cc1nnc(SCC2=C(C(=O)O)N3C(=O)C(NC(=O)Cn4cnnn4)C3SC2)s1 (centres undefined)
NF-kB SEAP reporter activity [1, 4]: 0.943
NF-kB SEAP reporter activity [1, 5]: 1.04

Cc1nnc(SCC2=C(C(=O)O)N3C(=O)C(NC(=O)Cn4cnnn4)C3SC2)s1 (centres undefined) (library stock concentration (final ~1000-fold dilution): 10 mM)
NF-kB SEAP reporter activity ([2]; agonist: LPS (TLR4) 0.1 ug/mL): 1.02
NF-kB SEAP reporter activity [2, 6]: 0.981
NF-kB SEAP reporter activity [2, 7]: 1.11
NF-kB SEAP reporter activity [2, 8]: 1.08

Cc1cccc(C#Cc2ccccc2)n1 (library stock concentration (final ~1000-fold dilution): 10 mM)
NF-kB SEAP reporter activity ([2]; agonist: LPS (TLR4) 0.1 ug/mL): 1.21
NF-kB SEAP reporter activity [2, 6]: 1.14
NF-kB SEAP reporter activity [2, 7]: 0.931
NF-kB SEAP reporter activity [2, 8]: 1.24

Cc1cccc(C#Cc2ccccc2)n1
NF-kB SEAP reporter activity [1, 4]: 1.25
NF-kB SEAP reporter activity [1, 5]: 1.29

Cc1cc(Nc2ncnc3ccc(-c4ccc(CNCCS(C)(=O)=O)o4)cc23)ccc1Oc1ccn2ncnc2c1 (library stock concentration (final ~1000-fold dilution): 10 mM)
NF-kB SEAP reporter activity ([2]; agonist: LPS (TLR4) 0.1 ug/mL): 2.19
NF-kB SEAP reporter activity [2, 6]: 0.229
NF-kB SEAP reporter activity [2, 7]: 0.997
NF-kB SEAP reporter activity [2, 8]: 0.811

Cc1cc(Nc2ncnc3ccc(-c4ccc(CNCCS(C)(=O)=O)o4)cc23)ccc1Oc1ccn2ncnc2c1
NF-kB SEAP reporter activity [1, 4]: 1.08
NF-kB SEAP reporter activity [1, 5]: 1.53

COc1cc(O)c(CC=C(C)C)c(O)c1C(=O)/C=C/c1ccc(O)cc1
NF-kB SEAP reporter activity [1, 9]: 1.3
NF-kB SEAP reporter activity [1, 10]: 1.04

COc1cc(O)c(CC=C(C)C)c(O)c1C(=O)/C=C/c1ccc(O)cc1 (library stock concentration (final ~1000-fold dilution): 10 mM)
NF-kB SEAP reporter activity ([3]; agonist: LPS (TLR4) 0.1 ug/mL): 0.941
NF-kB SEAP reporter activity [3, 6]: 0.792
NF-kB SEAP reporter activity [3, 7]: 0.843
NF-kB SEAP reporter activity [3, 8]: 1.32

Cc1ccc(Cl)c(Nc2ccccc2C(=O)O)c1Cl (library stock concentration (final ~1000-fold dilution): 10 mM)
NF-kB SEAP reporter activity ([2]; agonist: LPS (TLR4) 0.1 ug/mL): 0.956
NF-kB SEAP reporter activity [2, 6]: 1.01
NF-kB SEAP reporter activity [2, 7]: 0.977
NF-kB SEAP reporter activity [2, 8]: 0.816

Cc1ccc(Cl)c(Nc2ccccc2C(=O)O)c1Cl
NF-kB SEAP reporter activity [1, 4]: 0.962
NF-kB SEAP reporter activity [1, 5]: 0.997

CCCN(CCC)C(=O)C1=Cc2ccc(-c3ccc(C(=O)N4CCCC4)cc3)cc2N=C(N)C1
NF-kB SEAP reporter activity ([1]; library stock concentration (final ~1000-fold dilution): 1 mM, cytotoxicity flag (confluency mask): not cytotoxic, agonist: Imiquimod (TLR7) […]): 1.22
NF-kB SEAP reporter activity ([1]; library stock concentration (final ~1000-fold dilution): 1 mM, cytotoxicity flag (confluency mask): not cytotoxic, agonist: MPLA (TLR4) […]): 1.82

CCCN(CCC)C(=O)C1=Cc2ccc(-c3ccc(C(=O)N4CCCC4)cc3)cc2N=C(N)C1 (library stock concentration (final ~1000-fold dilution): 1 mM)
NF-kB SEAP reporter activity ([2]; agonist: LPS (TLR4) 0.1 ug/mL): 2.58
NF-kB SEAP reporter activity [2, 6]: 1.07
NF-kB SEAP reporter activity [2, 7]: 1.16
NF-kB SEAP reporter activity [2, 8]: 1.26

O=C(c1cn(Cc2cncn2Cc2ccc(Br)cc2)cc1-c1cccc2ccccc12)N1CCOCC1 (library stock concentration (final ~1000-fold dilution): 10 mM)
NF-kB SEAP reporter activity ([2]; agonist: LPS (TLR4) 0.1 ug/mL): 2.82
NF-kB SEAP reporter activity [2, 6]: 1.54
NF-kB SEAP reporter activity [2, 7]: 0.96
NF-kB SEAP reporter activity [2, 8]: 1.16

O=C(c1cn(Cc2cncn2Cc2ccc(Br)cc2)cc1-c1cccc2ccccc12)N1CCOCC1
NF-kB SEAP reporter activity [1, 4]: 1.35
NF-kB SEAP reporter activity [1, 5]: 1.46

O=C1Nc2ccc(I)cc2C1=Cc1cc(Br)c(O)c(Br)c1 (library stock concentration (final ~1000-fold dilution): 10 mM)
NF-kB SEAP reporter activity ([3]; agonist: LPS (TLR4) 0.1 ug/mL): 1.75
NF-kB SEAP reporter activity [3, 6]: 1.19
NF-kB SEAP reporter activity [3, 7]: 1.56
NF-kB SEAP reporter activity [3, 8]: 2.03

O=C1Nc2ccc(I)cc2C1=Cc1cc(Br)c(O)c(Br)c1
NF-kB SEAP reporter activity [1, 9]: 1.68
NF-kB SEAP reporter activity [1, 10]: 1.56

CCc1cc2c(cc1N1CCC(N3CCOCC3)CC1)C(C)(C)c1[nH]c3cc(C#N)ccc3c1C2=O.Cl (library stock concentration (final ~1000-fold dilution): 2 mM)
NF-kB SEAP reporter activity ([2]; agonist: LPS (TLR4) 0.1 ug/mL): 1.71
NF-kB SEAP reporter activity [2, 6]: 1.17
NF-kB SEAP reporter activity [2, 7]: 1.15
NF-kB SEAP reporter activity [2, 8]: 1.15

CCc1cc2c(cc1N1CCC(N3CCOCC3)CC1)C(C)(C)c1[nH]c3cc(C#N)ccc3c1C2=O.Cl
NF-kB SEAP reporter activity ([1]; library stock concentration (final ~1000-fold dilution): 2 mM, cytotoxicity flag (confluency mask): not cytotoxic, agonist: MPLA (TLR4) […]): 1.31
